Hit rate of the full screen: of about 260,000 compounds, about 890 (0.34%) were called active. The shares of active, inactive and inconclusive entries below differ from those in the screen. Calls follow the shape of the dose curve; as a rule, active = well fitted activation curve with a large enough effect; inconclusive = small, poorly fitted or top-dose-only effect; inactive = no such curve, though single readings can be large or run the other way. Where the call is inconclusive, the potency comes from a doubtful curve fit.
These compounds were tested against Pyruvate kinase PKM (Homo sapiens) (UniProt P14618) (assay: qHTS Assay for Activators of Human Muscle isoform 2 Pyruvate Kinase). Conditions: purified PKM2, Kinase-Glo ATP luminescence; Potency: activation; activation: at 57.5 µM (top of the series), 0% is enzyme alone, no compound.
Sequence of UniProt P14618 (P14618 whole entry, looked up, canonical isoform): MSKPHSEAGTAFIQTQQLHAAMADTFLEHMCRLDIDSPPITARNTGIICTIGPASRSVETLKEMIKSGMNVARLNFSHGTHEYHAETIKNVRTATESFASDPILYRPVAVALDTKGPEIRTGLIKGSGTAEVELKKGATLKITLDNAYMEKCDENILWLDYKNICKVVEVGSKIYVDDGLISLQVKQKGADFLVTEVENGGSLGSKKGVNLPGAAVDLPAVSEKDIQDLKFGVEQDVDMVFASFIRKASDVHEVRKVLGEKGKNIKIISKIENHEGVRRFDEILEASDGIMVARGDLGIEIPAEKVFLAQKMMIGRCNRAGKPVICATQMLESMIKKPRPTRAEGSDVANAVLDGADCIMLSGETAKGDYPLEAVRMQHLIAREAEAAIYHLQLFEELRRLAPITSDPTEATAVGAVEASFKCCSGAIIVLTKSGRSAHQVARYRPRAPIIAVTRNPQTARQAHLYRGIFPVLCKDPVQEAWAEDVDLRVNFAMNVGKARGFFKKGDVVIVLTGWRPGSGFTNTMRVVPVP
In short: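 Kinase-Glo luminescence reports ATP generated from ADP (0.1 mM) and PEP (0.5 mM) by purified hPK-M2 after 1 h at room temperature, pH 7.2 imidazole buffer; intermediate enzyme activity allows detecting inhibitors and activators.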
% is scaled to controls: 0 for no effect and ±100 for the full control effect; potency is read from the fitted curve at half-maximal effect; tags tell the direction and shape of the fitted curve.
Also: nearly all actives have a fitted effect of over 55% in size.

activation, inactive:
COC(=O)Cc1c(C)nc2nc(-c3ccc(C)cc3)[nH]n2c1=O -8.02%
Cc1cccc(-n2ncc3c2CCCC3NC(=O)CCN2Cc3ccccc3C2=O)c1C (stereo unspecified) 15.8%
CCOC(=O)c1c(-c2ccccc2)csc1N1C(=O)Nc2ccccc2N1O -0.511%
NC(=S)N/N=C/c1coc2c(ccc3ccccc32)c1=O 2.19%
FC(F)(F)c1cnc(C(c2ccccn2)c2ncn[nH]2)c(Cl)c1 (stereo unspecified) 3.46%
O=C(NCC1CCCO1)C(c1cccs1)N(Cc1ccccc1)C(=O)c1ccc(-c2ccccc2)[nH]1 (stereo unspecified) -1.83%
COc1ccc(-c2cc(COc3ccccc3)on2)cc1 -1.05%
COc1ccccc1CNC(=O)N1CCN(S(=O)(=O)c2ccc(Cl)cc2)CC1 20.4%
CC1=NOC(=O)/C1=C\c1ccc(-c2ccc(Br)cc2C(=O)O)o1 -12.6%
O=C(Nc1ncc(Cl)cn1)c1cccs1 -19.2%
CC(C)c1ccc(Nc2nc(CC(=O)O)cs2)cc1 -9.17%
CCNC(=S)N/N=C/c1cccs1 3.1%
COc1ccc(/C=N/Nc2nc(=O)[nH]nc2C)cc1OC -27.8%
CC(C)(C)[C@H]1C=C(C(=O)Nc2ccccc2)O[C@@H](OCc2ccc(CO)cc2)C1 0.0264%
CC(C)CCSc1nc(N)c(C#N)cc1C#N -6.65%
CSc1ccc(/C=N/NC(=O)c2ccc(C)c(C)c2)cc1 13%
Cc1nn(CC(=O)OCC(=O)Nc2c(C(C)C)cccc2C(C)C)c(C)c1[N+](=O)[O-] -14%
CC(/C=N/Nc1nc(C)cc(C)n1)=C\c1ccc(C(C)C)cc1 2.09%
CCN=C1S/C(=C\c2ccc(Sc3ccc(Cl)cc3)o2)C(=O)N1CC 2.08%
Cc1ccc(S(=O)(=O)c2c(N)n(CC3CCOC3)c3nc4ccccc4nc23)cc1 (stereo unspecified) 3.8%
O=c1[nH]c2ccccc2c(O)c1-c1ccccc1[N+](=O)[O-] 0.232%
CC(C)C(C)NC(=O)COc1nc2ccccc2nc1N(C)C1CCCCC1 (stereo unspecified) -0.269%
S=C(N/N=C/c1ccc2ncccc2c1)Nc1cccnc1 -2.86%
CCN(CC)S(=O)(=O)c1ccc(OC(C)C)c(NC(=O)c2c3c(nc4ccccc24)CCN(Cc2ccccc2)C3)c1 -1.04%

Potency, active:
O=[N+]([O-])c1ccc(NCCCNS(=O)(=O)c2ccccc2)c(Cl)c1 7.94 µM
Cc1ccc(NS(=O)(=O)c2cc3c(cc2C)NC(=O)CO3)cc1 5.62 µM
Cc1oc2c(C)c(O)ccc2c(=O)c1-c1nncn1-c1ccccc1 17.8 µM
Cc1ccc(-c2csc3nc(C)n(-n4c(C)ccc4C)c(=O)c23)o1 14.1 µM
CC(=O)Nc1sc(N/N=C/c2ccc(C)cc2)nc1-c1ccc(C)cc1 7.08 µM
COc1ccccc1-c1ccc(/C=C2/C=C(C)OC2=O)o1 12.6 µM
C/C=C\C=C/C(=O)Nc1cccc(C2=NOC3(C2)C[C@H](C(N)=O)N(C(=O)c2ccc(OC)cc2)C3)c1 (stereo partly specified) 14.1 µM
COc1ccc(C(=O)N/N=C/c2ccc(N3CCOCC3)o2)cc1OC 2.51 µM
Cn1cnnc1Sc1cc(N2CCN(S(=O)(=O)c3ccc(Cl)c(Cl)c3)CC2)ccc1[N+](=O)[O-] 2.82 µM
O=S(=O)(c1cnc(Cl)c(Cl)c1)N1CCc2ccccc21 3.55 µM

Potency, inconclusive:
COC(=O)CCC/C=C1/SCC(NC(=O)c2ccccc2)C1=O (stereo unspecified) 22.4 µM [rising, partial curve]
O=C(OCCCN1CCOCC1)c1ccc(O)c(O)c1 6.31 µM [rising, single point]
CCSCCNC(=O)c1cncc(Br)c1 31.6 µM [rising, single point]
CN(C)[C@@H]1C(=O)C(C(=O)NCN2CCCC2)=C(O)[C@@]2(O)C(=O)C3=C(O)c4c(O)cccc4[C@@](C)(O)C3CC12 (stereo partly specified) 3.98 µM [rising, full curve]
CCOC(=O)c1c(N2C(=O)C=CC2=O)sc(C)c1C 3.16 µM [rising, full curve]
Cc1ccc(-c2ccccc2)n1-c1cccc(C(=O)O)c1 35.5 µM [rising, single point]
CC(=O)c1c(C)[nH]c(C(=O)N(C)C(c2ccccc2)c2ccccc2)c1C 14.1 µM [rising, partial curve]
COc1ccc(OCc2nn3c(-c4ccco4)nnc3s2)cc1 39.8 µM [rising, single point]
Cn1c(C(=O)N2CCN(C(=O)c3ccco3)CC2)cc2c(=O)n(C)c3ccccc3c21 17.8 µM [rising, partial curve]
Cc1cccc2sc(NC(=O)CCNS(=O)(=O)c3cccc4nonc34)nc12 39.8 µM [rising, single point]
COc1ccc(-n2cc(-c3ccccc3)c3c(=O)[nH]cnc32)cc1 17.8 µM [rising, partial curve, poor fit]
Cc1ccnc(Nc2nc3ccccc3s2)n1 39.8 µM [rising, single point]
COc1ccc(S(=O)(=O)N=C2C=C(C)C(=O)C(C)=C2)cc1 28.2 µM [rising, single point]
CC(C(=O)Nc1cccc([N+](=O)[O-])c1)N1CCN(C/C=C/c2ccccc2)CC1 (stereo unspecified) 7.08 µM [rising, single point]
CC1CN(C2CCN(S(=O)(=O)c3ccc4ccccc4c3)CC2)CC(C)O1 (stereo unspecified) 15.8 µM [rising, partial curve]
CCCCOC(=O)c1ccc(Nc2ccc([N+](=O)[O-])cn2)cc1 39.8 µM [rising, single point]
O=C(CN1CCSC1=NCc1ccccc1)c1ccc(Cl)cc1 39.8 µM [rising, single point]
Nn1c(SCc2cn3ccsc3n2)nnc1-c1ccncc1 39.8 µM [rising, single point]
Cc1cc(=O)oc2c(C)c(OCC(=O)NCC3CCC(C(=O)O)CC3)ccc12 (stereo unspecified) 39.8 µM [rising, single point]
Cc1cc(C)c(C#N)c(SCc2cn3ccccc3n2)n1 17.8 µM [rising, partial curve]
CCc1cc2ccc(C)cc2nc1SCC(=O)N1CCN(C(=O)c2ccco2)CC1 28.2 µM [rising, single point]
O=C(Nc1nc(-c2cccnc2)cs1)c1ccccc1Cl 39.8 µM [rising, single point]
CCOC(=O)c1c(NC(=S)N2CCCCC2)sc2c1CCN(C(=O)OCC)C2 6.31 µM [rising, single point]
Cc1cc(C)n(CC(=O)NN)n1 39.8 µM [rising, single point]
CCOc1cc(S(=O)(=O)n2nc(C)cc2C)ccc1Br 31.6 µM [rising, single point]
O=C(c1cccc(Cl)c1)N1CCCC(c2ccc(Cl)cc2)=N1 17.8 µM [rising, partial curve, poor fit]
CCC(=O)OCC(=O)c1c(N)n(Cc2ccccc2)c(=O)n(C)c1=O 22.4 µM [rising, single point]
Nc1nc(SCC(=O)NC2CCCc3ccccc32)n[nH]1 (stereo unspecified) 35.5 µM [rising, single point]
O=C(O)c1ccc(C2(c3ccc(C(=O)O)cc3)OC(=O)c3ccccc32)cc1 0.316 µM [rising, partial curve, poor fit]
COCC(C)n1c(C)cc(C(=O)COC(=O)c2ccc3c(c2)NC(=O)CS3)c1C (stereo unspecified) 22.4 µM [rising, partial curve]
Cc1ccc(-n2nc(-c3ccco3)cc2C(=O)NCc2cccnc2)cc1 20 µM [rising, partial curve]
Cc1ccc(-c2ccccc2NC(=O)CCl)o1 20 µM [rising, partial curve]
O=C(NN1C(=O)C2C3C=CC(O3)C2C1=O)c1cccc(O)c1 (stereo unspecified) 20 µM [rising, single point]
O=C(CC(C(=O)O)c1c[nH]c2ccccc12)c1ccccc1 (stereo unspecified) 39.8 µM [rising, single point]
COc1ccc(S(=O)(=O)N2CCN(C(=O)Cc3cccs3)CC2)cc1 7.94 µM [rising, partial curve]
COc1cc(S(=O)(=O)Nc2cccc(C)c2)ccc1NC(=O)c1ccncc1 25.1 µM [rising, single point]
O=C(O)c1ccccc1SC1CC(=O)N(c2cccc3ccccc23)C1=O (stereo unspecified) 28.2 µM [rising, single point]
Cc1ccc(-c2csc3ncnc(Nc4ccc(N5CCOCC5)cc4)c23)cc1 0.562 µM [rising, single point]
CCOC(=O)C(NC(=O)CC)(Nc1ccc(S(N)(=O)=O)cc1)C(F)(F)F (stereo unspecified) 6.31 µM [rising, single point]
O=C(OCC(=O)N1CCN(C(=O)c2ccco2)CC1)c1ccccc1C(=O)c1ccccc1 17.8 µM [rising, partial curve]
Cc1cnc(NC(=O)Cc2c[nH]c3ccccc23)s1 39.8 µM [rising, single point]
COc1ccc2c(c1)c(CC(=O)OCC(=O)O)c(C)n2C(=O)c1ccc(Cl)cc1 39.8 µM [rising, single point]
